Results on four molecules are retold here after patent US20230257470A1.

One experiment has as its target human FcγRIIa(H) (human) (UniProt P12318). Description: SPR, antibody captured, FcγR as analyte, capture-corrected binding amount.
Another experiment has as its target human FcγRIIb (human) (UniProt P31994). Description: SPR, captured antibody, FcγR as analyte.
Chain of UniProt P31994 (P31994 43-217 limits assumed): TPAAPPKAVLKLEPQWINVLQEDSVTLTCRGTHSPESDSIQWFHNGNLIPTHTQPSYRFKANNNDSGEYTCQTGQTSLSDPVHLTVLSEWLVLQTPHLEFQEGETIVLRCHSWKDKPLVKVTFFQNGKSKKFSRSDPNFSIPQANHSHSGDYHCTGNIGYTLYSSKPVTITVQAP

Chain of UniProt P12318 (P12318 other isoform, or with tags, fused parts or gaps limits assumed): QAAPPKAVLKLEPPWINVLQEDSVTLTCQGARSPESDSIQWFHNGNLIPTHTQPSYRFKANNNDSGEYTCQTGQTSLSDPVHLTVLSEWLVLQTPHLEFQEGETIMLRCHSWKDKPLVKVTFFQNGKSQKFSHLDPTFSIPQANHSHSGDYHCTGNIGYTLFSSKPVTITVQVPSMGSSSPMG

B1: GpH7-B3 N325V/GpL16-k0 (antibody, human IgG1)
heavy: QVQLVQSGAEVKKPGASVTVSCKASGYTFTDYEMHWIRQPPGEGLEWIGAIDPKTGDTAYSESFQDRVTLTADKSTSTAYMELSSLTSEDTAVYYCTRFYSYTYWGQGTLVTVSS[no letters for human IgG1 constant region with N325V K439E (EU numbers)]
light: DIVMTQSPLSLPVTPGEPASISCQASESLVHSNRNTYLHWYLQKPGQSPQLLIYKVSNRFSGVPDRFSGSGSGTDFTLKISRVEAEDVGVYYCSQNTHVPPTFGQGTKVEIE
The molecule B1 registered a relative binding activity (% of GpH7-B3/GpL16-k0) with human FcγRIIa(H) (human) of 9.

B2: GpH7-B3 variant P238T/GpL16-k0 (antibody, human IgG1)
heavy: QVQLVQSGAEVKKPGASVTVSCKASGYTFTDYEMHWIRQPPGEGLEWIGAIDPKTGDTAYSESFQDRVTLTADKSTSTAYMELSSLTSEDTAVYYCTRFYSYTYWGQGTLVTVSS[no letters for human IgG1 constant region with P238T K439E (EU numbers)]
light: DIVMTQSPLSLPVTPGEPASISCQASESLVHSNRNTYLHWYLQKPGQSPQLLIYKVSNRFSGVPDRFSGSGSGTDFTLKISRVEAEDVGVYYCSQNTHVPPTFGQGTKVEIE
With B2, in the experiment with human FcγRIIb (human), the relative binding activity (% of GpH7-B3/GpL16-k0) was 8.

B3: GpH7-B3 N325I/GpL16-k0 (antibody, human IgG1)
heavy: QVQLVQSGAEVKKPGASVTVSCKASGYTFTDYEMHWIRQPPGEGLEWIGAIDPKTGDTAYSESFQDRVTLTADKSTSTAYMELSSLTSEDTAVYYCTRFYSYTYWGQGTLVTVSS[no letters for human IgG1 constant region with N325I K439E (EU numbers)]
light: DIVMTQSPLSLPVTPGEPASISCQASESLVHSNRNTYLHWYLQKPGQSPQLLIYKVSNRFSGVPDRFSGSGSGTDFTLKISRVEAEDVGVYYCSQNTHVPPTFGQGTKVEIE
With B3, the relative binding activity (% of GpH7-B3/GpL16-k0) in the experiment with human FcγRIIa(H) (human) came out at 8.

B4: GpH7-B3 L328P/GpL16-k0 (antibody, human IgG1)
heavy: QVQLVQSGAEVKKPGASVTVSCKASGYTFTDYEMHWIRQPPGEGLEWIGAIDPKTGDTAYSESFQDRVTLTADKSTSTAYMELSSLTSEDTAVYYCTRFYSYTYWGQGTLVTVSS[no letters for human IgG1 constant region with L328P K439E (EU numbers)]
light: DIVMTQSPLSLPVTPGEPASISCQASESLVHSNRNTYLHWYLQKPGQSPQLLIYKVSNRFSGVPDRFSGSGSGTDFTLKISRVEAEDVGVYYCSQNTHVPPTFGQGTKVEIE
In the experiment with human FcγRIIa(H) (human), B4 gave a relative binding activity (% of GpH7-B3/GpL16-k0) of 8.
